Measurements as given in patent US20120179089A1, “SUBSTITUTED BIPYRIDINES FOR USE IN ORGANIC LIGHT-EMITTING DEVICES” (Nitto Denko Corporation, priority 2010, published 2012).

Tested on: actinic keratoses
Assay: Phototherapy of actinic keratoses lesions with red light emitting OLED
Conditions: 20% topical solution; illuminated 14-18 hours after application, about 20 mW/cm^2 for about 8.3 minutes
Protocol: 5-Aminolevulinic acid HCl (20% topical solution, available as LEVULAN® KERASTICK® from DUSA® Pharmaceuticals) is topically applied to individual lesions on a person suffering from actinic keratoses. About 14-18 hours after application, the treated lesions are illuminated with a red light emitting OLED device constructed as set forth in Example 13 (Compound 8:Ir(piq)2acac emissive layer and no wavelength convertor layer) at an intensity of about 20 mW/cm^2 for about 8.3 minutes.
The treatment is repeated as needed.
Methyl aminolevulinate (16.8% topical cream, available as METVIXIA® Cream from GALERMA LABORATORIES, Fort Worth, Tex., USA) is topically applied to individual lesions on a person suffering from actinic keratoses. The excess cream is removed with saline, and the lesions are illuminated with the red light emitting OLED constructed as set forth in Example 13.
Nitrile gloves are worn at all times during the handling of methyl aminolevulinate. After the treatment, it is anticipated that the number or severity of the lesions is reduced. The treatment is repeated as needed.

SMILES: Cl.NCC(=O)CCC(=O)O [5-Aminolevulinic acid HCl]
- number or severity of the lesions: anticipated to be reduced
